The chains are these.
B1: OR4K15 (parent)
chain: GUUAACGGUCAUAGGCCAUGGAAACUAGGAGCACCAUUUCGCUGCCAGUGAAGAAAUGAACAAAGAAAAUCUGGGCCAGGCAGGCAUCAAAAGAAAUAGUCUUGCGCUCAACCAGAAAGUCUGUAAUCAUUUUAAGGGUA

Read counts are not given, so values of variants with three or more changes are uncertain.

This data set covers variants of B1. In words: self-cleavage, relative activity (ratio to wild type); higher = more cleavage; in vitro, sequencing; the parent is a self-cleaving ribozyme.
GUUAACGGUCAUAGGCCAUGGAAACUAGGAGCACCAUUUCGCUGCCAGUGAAGAAAUGAACAAAGAGAAUCUGGGCCAGGCAGGCAUCAAAAGAAAUAGUCAUGCGCUCAACCGGAAAGUCUGUAAUCAUUUUAAGGGUA [A67G U102A A114G]: the self-cleavage is 0.39.

Regarding GUUAACGGUCAUAGGCCAUGGAAACUAGGAGCACCAUUUCGCUGCCAGUGAAGAAAUGAACAAAGAAGAUCUGGGCCUGGCAGGCAUCAAAGGAAAUAGCCUUGCGCUCAACCAGAAAGUCUGUAAUCAUUUUAAGGGUA [A68G A78U A92G U100C], the self-cleavage was found to be 0.91.

In the case of GUUAACGGUCAUAGGCCAUGGAAACUAGGAGCACCAUUUCGCUGCCAGUGAAGAAAUGAACAAAGAAGAUCUGGGCCUGGCAGGCAUCAAAGGAAAUAGUCUUGCGCUCAACCAGAAAGUCGGUAAUCAUUUUAAGGGUA [A68G A78U A92G U122G], the self-cleavage amounted to 0.83.

With GUUAACGGUCAUAGGCCAUGGAAACUAGGAGCACCAUUUCGCUGCCAGUGAAGAAAUGAACAAAGAACAUCUGGGCCAGGCAGGCACCAAAAGAAAUAGUCUUGCGCUCAACCAAAAAGUCUGUAAUCAUUUUAAGGGUA [A68C U87C G115A], the self-cleavage worked out at 0.05.

For GUUAACGGUCAUAGGCCAUGGAAACUAGGAGCACCAUUUCGCUGCCAGUGAAGAAAUGAACAAAGAUGAUCUGGACCAGGCAGGCAUCAAAAGAAAUAGUCUUGCGCUCAACCAGAAAGUCUGUAAACAUUUUAAGGGUA [A67U A68G G75A U127A], the self-cleavage was 0.08.

Turning to GUUAACGGUCAUAGGCCAUGGAAACUAGGAGCACCAUUUCGCUGCCAGUGAAGAAAUGAACAAAGAUCAUCUGGGCCAGGCAGGCAUCAAAAGAAAUAGUCUUGCGCUCAACCAGAAAGUCUGUAAUCAUUUCAAGGGUA [A67U A68C U133C], the self-cleavage amounted to 0.78.

For the variant GUUAACGGUCAUAGGCCAUGGAAACUAGGAGCACCAUUUCGCUGCCAGUGAAGAAAUGAACAAAGAUAAUCUGGGCCAGGCAGGCAUCAAAAGAAAUAGUCUGGCGCUCAACCAGAGAGUCUGUAAUCAUUUUAAGGGUA [A67U U103G A117G], the self-cleavage worked out at 0.04.

Regarding GUUAACGGUCAUAGGCCAUGGAAACUAGGAGCACCAUUUCGCUGCCAGUGAAGAAAUGAACAAAGAGAAUCUGGGCCAGGCAGGCAUCAAAAGAAAUAGUCUUGCGCUCAACCAGAAAGUCUGUAACCGUUUUAAGGGUA [A67G U127C A129G], the self-cleavage worked out at 0.22.

For GUUAACGGUCAUAGGCCAUGGAAACUAGGAGCACCAUUUCGCUGCCAGUGAAGAAAUGAACAAAGAAGAUCUGGGCCGGGCAGGCAUCAAAAGAAAUAGUCUUGCGCUCAACCAGAGAGUCUGUAAUCAUUUUAAGGGUA [A68G A78G A117G], the self-cleavage was found to be 0.37.

Take GUUAACGGUCAUAGGCCAUGGAAACUAGGAGCACCAUUUCGCUGCCAGUGAAGAAAUGAACAAAGAACACCUGGGCCAGGCAGGCACCAAAAGAAAUAGUCUUGCGCUCAACCAGAAAGUCUGUAAUCAUUUUAAGGGUA [A68C U70C U87C]: the self-cleavage was determined as 0.73.

Take GUUAACGGUCAUAGGCCAUGGAAACUAGGAGCACCAUUUCGCUGCCAGUGAAGAAAUGAACAAAGAAGAUCUGGGCCUGGCAGGCAUCAAAAGAAAUAGUCUUGCGCUCAACCUGAAAGUCUGGAAUCAUUUUAAGGGUA [A68G A78U A114U U124G]: the self-cleavage came out at 0.01.

Turning to GUUAACGGUCAUAGGCCAUGGAAACUAGGAGCACCAUUUCGCUGCCAGUGAAGAAAUGAACAAAGAUAAUCUGGGCCAGGCAGGCGUCAAAAGAAAUAGUCUUGCGCUCAACCAGAAAGUCCGUAAUCAUUGUAAGGGUA [A67U A86G U122C U132G], the self-cleavage was 2.09.

Turning to GUUAACGGUCAUAGGCCAUGGAAACUAGGAGCACCAUUUCGCUGCCAGUGAAGAAAUGAACAAAGAUAAUCUAGGCCAGGCAGGCAUCAAAAGAAAUAGUCUUGCGCUCAACCAGAAAGUCCGUAAUCAUUUUAAGGGUA [A67U G73A U122C], the self-cleavage came to 0.05.

For the variant GUUAACGGUCAUAGGCCAUGGAAACUAGGAGCACCAUUUCGCUGCCAGUGAAGAAAUGAACAAAGAAGGUCUGGGCCAGGCAGGCAUCAAAAGUAAUAGUCUUGCGCUCAACCAGAAAGUCUGUAAUCAUUCUAAGGGUA [A68G A69G A94U U132C], the self-cleavage came out at 0.55.

For GUUAACGGUCAUAGGCCAUGGAAACUAGGAGCACCAUUUCGCUGCCAGUGAAGAAAUGAACAAAGAUAAUCUGGGCCAGGCAGGCAUCAAAGGAAAUAGUCUUGCGCUCAACCAGAAAGUCUGUAAUCGUCUUAAGGGUA [A67U A92G A129G U131C], the self-cleavage was 2.53.

Consider GUUAACGGUCAUAGGCCAUGGAAACUAGGAGCACCAUUUCGCUGCCAGUGAAGAAAUGAACAAAGAACAUCUGGGCCAGGCAGGCAUCGAAAGAAAUAGUCUCGCGCUCCACCAGAAAGUCUGUAAUCAUUUUAAGGGUA [A68C A89G U103C A110C], for which the self-cleavage was 0.74.

Consider GUUAACGGUCAUAGGCCAUGGAAACUAGGAGCACCAUUUCGCUGCCAGUGAAGAAAUGAACAAAGAAGAUCUGGGCCGGGCAGGCAUCAAAAGAAAUUGUCUUGCGCUCAACCAGAAAGUCUGUAAUCAUUUUAAGGGUA [A68G A78G A98U], for which the self-cleavage amounted to 0.22.

As to GUUAACGGUCAUAGGCCAUGGAAACUAGGAGCACCAUUUCGCUGCCAGUGAAGAAAUGAACAAAGAACUUCUGGGCCGGGCAGGCAUCAAAAGAAAUAGUCUUGCGCUCAACCAGAAAGUCUGUAAUCAUUUUAAGGGUA [A68C A69U A78G], the self-cleavage is 0.21.

On to GUUAACGGUCAUAGGCCAUGGAAACUAGGAGCACCAUUUCGCUGCCAGUGAAGAAAUGAACAAAGAUAAUCUGGGCCAGGCAGGCAUCAAAAGAAAUAGUCUUGCGCUCAUCCAGAGAGUCUGUAAUCAUUUUAAGGGUA [A67U A111U A117G], for which the self-cleavage is 0.1.

On to GUUAACGGUCAUAGGCCAUGGAAACUAGGAGCACCAUUUCGCUGCCAGUGAAGAAAUGAACAAAGAACAUCUGGGCCAGGCAGGCAUCAAGAGAAAUAGUCUUGCGCUCAGCCAGAAAGUCUGUAAUCAUUUUAAGGGUA [A68C A91G A111G], for which the self-cleavage came to 0.02.

On to GUUAACGGUCAUAGGCCAUGGAAACUAGGAGCACCAUUUCGCUGCCAGUGAAGAAAUGAACAAAGAAGAUCUGGGCCAGGCCGGCAUCAAAAGAAAUAGUCUUGCGCUCAACCAGAAAGUCUGUAAUCAUUUAAAGGGUA [A68G A82C U133A], for which the self-cleavage came out at 0.19.

Source of the values: the RNAGym collection of RNA variant scans (doi:10.7554/elife.90254).
